The values below come from the supplement of paper PMC4604168 (melanoma cell lines).

This is one part of the list. Single values are uncertain, as repeats are few or missing.

Some test systems named below: MZ2-MEL; MeWo; RPMI7951; RVH-421; SkMel28; SkMel2; SkMel30; UACC62.
What all share (assay): cell count relative to DMSO control; melanoma cells; higher = more viable cells
Common to all, as to details: library dose: low library concentration; 72 h
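Note: cell number obtained by counting DAPI-stained nuclei in high-throughput microscope images with image analysis software, screen run in 1,536-well plates.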

As to `CS(=O)(=O)CCNCc1ccc(-c2ccc3ncnc(Nc4ccc(OCc5cccc(F)c5)c(Cl)c4)c3c2)o1` [lapatinib] + COCC[n+]1c2c(n(Cc3cnccn3)c1C)C(=O)c1ccccc1C2=O [YM155] (first compound 0.8 µM, partner dose 0.0004 µM), the cell count in the test with MZ2-MEL turned out to be 54.8%; with MeWo, 82.4%; in the test on RPMI7951, 72.3%; with RVH-421 it was 77.9%; with SkMel28, 88.8%; in the test with SkMel2, 93.5%. Moreover, the cell count came out at 87.3% in the test with SkMel30 and 86% with UACC62.

Regarding `C[C@@H](Oc1cc(-c2cnn(C3CCNCC3)c2)cnc1N)c1c(Cl)ccc(F)c1Cl` [Crizotinib] + O=C(O)[C@@H]1[O][Sb](=[O])([O][Sb]2(=[O])[O][C@H]([C@H](O)CO)[C@H](O)[C@H](C(=O)O)[O]2)[O][C@H]([C@H](O)CO)[C@@H]1O [stibogluconate] (first compound 0.2 µM, partner dose 2 µM), the cell count in the test on MZ2-MEL is 97.9%; in the test with MeWo it was 108%; in the test with RPMI7951, 117%; in the test on RVH-421 it was 99.3%; with SkMel28 it was 97.5%; with SkMel2 it was 92.2%. Further, the figures for the cell count in the test with SkMel30 and in the test with UACC62 were 99.6% and 93.4%, respectively.

Turning to `CNC(=O)c1cc(Oc2ccc(NC(=O)Nc3ccc(Cl)c(C(F)(F)F)c3)cc2)ccn1` [sorafenib] + Cn1nnc2c(C(N)=O)ncn2c1=O [temozolomide] (first compound 0.4 µM, partner dose 2 µM), the cell count in the test with MZ2-MEL is 103%; in the test with MeWo, 96%; in the test with RPMI7951, 77.1%; with RVH-421, 76.7%; in the test on SkMel28, 78.2%; with SkMel2 it was 91%. Further, the cell count in the test with SkMel30 is 116%; with UACC62, 74.8%.

Turning to `C=CCNC1=C2C[C@@H](C)C[C@H](OC)[C@H](O)[C@@H](C)/C=C(\C)[C@H](OC(N)=O)[C@@H](OC)/C=C\C=C(/C)C(=O)NC(=CC1=O)C2=O` [Tanespimycin] + C#Cc1cccc(Nc2ncnc3cc(OCCOC)c(OCCOC)cc23)c1 [erlotinib] (first compound 0.002 µM, partner dose 0.8 µM), the cell count with MZ2-MEL came out at 93.8%; in the test on MeWo, 84.2%; in the test with RPMI7951, 66.8%; with RVH-421, 102%; in the test on SkMel28, 75.4%; in the test on SkMel2, 97.8%. The cell count in the test on SkMel30 came to 98.3%; in the test on UACC62, 86.7%.

For `C[C@@H](Oc1cc(-c2cnn(C3CCNCC3)c2)cnc1N)c1c(Cl)ccc(F)c1Cl` [Crizotinib] + Nc1ccn([C@@H]2O[C@H](CO)[C@@H](O)C2(F)F)c(=O)n1 [gemcitabine] (first compound 0.2 µM, partner dose 0.0004 µM), the cell count was 100% with MZ2-MEL; 102% with MeWo; 106% in the test on RPMI7951; 99.1% in the test with RVH-421; 111% in the test on SkMel28; 98.2% in the test with SkMel2. In addition, the cell count with SkMel30 is 100%; in the test on UACC62 it was 95.7%.

On to `CN1CCN(c2ccc3nc(-c4c(N)c5c(F)cccc5[nH]c4=O)[nH]c3c2)CC1` [Dovitinib] + COc1ccc(Cl)c(Nc2nc3ccccc3nc2NS(=O)(=O)c2cccc(NC(=O)C(C)(C)N)c2)c1 [XL147] (first compound 0.1 µM, partner dose 0.8 µM), for which the cell count with MZ2-MEL amounted to 91.6%; with MeWo, 90.7%; in the test with RPMI7951 it was 104%; with RVH-421 it was 112%; with SkMel28 it was 103%; with SkMel2, 96.2%. Moreover, the cell count in the test on SkMel30 came out at 74.1%; in the test on UACC62, 88.4%.

Consider `CS(=O)(=O)CCNCc1ccc(-c2ccc3ncnc(Nc4ccc(OCc5cccc(F)c5)c(Cl)c4)c3c2)o1` [lapatinib] + O=C(O)c1ccc2c(c1)nc(Nc1cccc(Cl)c1)c1ccncc12 [CX4945] (first compound 0.8 µM, partner dose 0.4 µM), for which the cell count is 86.8% with MZ2-MEL; 99.6% with MeWo; 97.2% in the test on RPMI7951; 105% with RVH-421; 106% in the test with SkMel28; 92.3% in the test on SkMel2. The results for the cell count in the test with SkMel30 and in the test on UACC62 were 87.5% and 86.2%, respectively.

For `C[C@@H](Oc1cc(-c2cnn(C3CCNCC3)c2)cnc1N)c1c(Cl)ccc(F)c1Cl` [Crizotinib] + OCc1c[nH]c2ccccc12 [Indole-3-carbinol] (first compound 0.2 µM, partner dose 0.8 µM), the cell count in the test with MZ2-MEL was 92.6%; in the test on MeWo, 89.9%; in the test on RPMI7951, 100%; in the test with RVH-421, 82.7%; in the test with SkMel28, 99.5%; in the test on SkMel2, 87.1%. Moreover, the cell count in the test on SkMel30 came out at 88.7%; in the test on UACC62, 106%.

As for `CS(=O)(=O)CCNCc1ccc(-c2ccc3ncnc(Nc4ccc(OCc5cccc(F)c5)c(Cl)c4)c3c2)o1` [lapatinib] + Cn1nnc2c(C(N)=O)ncn2c1=O [temozolomide] (first compound 0.8 µM, partner dose 2 µM), the cell count in the test with MZ2-MEL came to 94.6%; in the test with MeWo, 86.8%; in the test on RPMI7951, 94.2%; in the test on RVH-421, 99.4%; in the test on SkMel28, 89.8%; with SkMel2, 96.5%. Further, the cell count stood at 71% with SkMel30 and 83.5% in the test on UACC62.

As for `CS(=O)(=O)CCNCc1ccc(-c2ccc3ncnc(Nc4ccc(OCc5cccc(F)c5)c(Cl)c4)c3c2)o1` [lapatinib] + CCCS(=O)(=O)Nc1ccc(F)c(C(=O)c2c[nH]c3ncc(Cl)cc23)c1F [PLX4720] (first compound 0.8 µM, partner dose 0.08 µM), the cell count in the test on MZ2-MEL amounted to 83.9%; in the test on MeWo, 98.4%; in the test on RPMI7951, 99.7%; with RVH-421 it was 104%; with SkMel28, 97.3%; in the test on SkMel2, 99.8%. The cell count was determined as 101% in the test on SkMel30 and 76.7% with UACC62.

For `CN1CCN(c2ccc3nc(-c4c(N)c5c(F)cccc5[nH]c4=O)[nH]c3c2)CC1` [Dovitinib] + C=C(c1ccc(C(=O)O)cc1)c1cc2c(cc1C)C(C)(C)CCC2(C)C [Bexarotene] (first compound 0.1 µM, partner dose 2 µM), the cell count was 68.8% in the test with MZ2-MEL; 77% with MeWo; 78.2% in the test on RPMI7951; 99.4% in the test with RVH-421; 64.8% with SkMel28; 82.4% in the test on SkMel2. Moreover, the results for the cell count in the test on SkMel30 and with UACC62 were 43.2% and 81%, respectively.

For the compound `CNC(=O)c1cc(Oc2ccc(NC(=O)Nc3ccc(Cl)c(C(F)(F)F)c3)cc2)ccn1` [sorafenib] + Nc1ncn([C@H]2C[C@H](O)[C@@H](CO)O2)c(=O)n1 [decitabine] (first compound 0.4 µM, partner dose 0.1 µM), the cell count in the test on MZ2-MEL was 76.1%; with MeWo, 90.6%; in the test with RPMI7951, 86.1%; with RVH-421, 86.8%; in the test with SkMel28 it was 78.3%; in the test with SkMel2, 114%. The values for the cell count in the test with SkMel30 and with UACC62 were 121% and 76.4%, respectively.

As for `CNC(=O)c1cc(Oc2ccc(NC(=O)Nc3ccc(Cl)c(C(F)(F)F)c3)cc2)ccn1` [sorafenib] + COc1ccc(Cl)c(Nc2nc3ccccc3nc2NS(=O)(=O)c2cccc(NC(=O)C(C)(C)N)c2)c1 [XL147] (first compound 0.4 µM, partner dose 0.8 µM), the cell count amounted to 87.3% with MZ2-MEL; 83% in the test with MeWo; 74% with RPMI7951; 86.8% in the test on RVH-421; 105% in the test on SkMel28; 92% in the test with SkMel2. The cell count worked out at 85.4% in the test with SkMel30 and 111% in the test on UACC62.

With `C[C@@H](Oc1cc(-c2cnn(C3CCNCC3)c2)cnc1N)c1c(Cl)ccc(F)c1Cl` [Crizotinib] + Nc1ncn([C@H]2C[C@H](O)[C@@H](CO)O2)c(=O)n1 [decitabine] (first compound 0.2 µM, partner dose 0.1 µM), the cell count with MZ2-MEL turned out to be 85.4%; in the test on MeWo, 96.7%; in the test on RPMI7951, 74.6%; with RVH-421, 85.3%; in the test on SkMel28, 98.3%; in the test on SkMel2, 88.5%. Also, the cell count with SkMel30 came out at 111%; with UACC62, 103%.

On to `CNC(=O)c1cc(Oc2ccc(NC(=O)Nc3ccc(Cl)c(C(F)(F)F)c3)cc2)ccn1` [sorafenib] + C[C@]1(c2nc3c(C(N)=O)cccc3[nH]2)CCCN1 [Veliparib] (first compound 0.4 µM, partner dose 1.4 µM), for which the cell count in the test with MZ2-MEL stood at 91.8%; in the test with MeWo, 97.8%; in the test with RPMI7951 it was 76.5%; with RVH-421 it was 70.1%; in the test with SkMel28, 90.5%; in the test with SkMel2, 95.7%. Besides, the cell count in the test with SkMel30 turned out to be 90.2%; with UACC62 it was 73.6%.

In the case of `C[C@@H](Oc1cc(-c2cnn(C3CCNCC3)c2)cnc1N)c1c(Cl)ccc(F)c1Cl` [Crizotinib] + Cn1nnc2c(C(N)=O)ncn2c1=O [temozolomide] (first compound 0.2 µM, partner dose 2 µM), the cell count in the test on MZ2-MEL is 99.5%; with MeWo, 95.5%; in the test with RPMI7951, 89.4%; in the test on RVH-421 it was 101%; with SkMel28, 83.9%; in the test with SkMel2 it was 84.7%. The cell count is 87.7% with SkMel30 and 91.8% in the test with UACC62.

Consider `C[C@@H](Oc1cc(-c2cnn(C3CCNCC3)c2)cnc1N)c1c(Cl)ccc(F)c1Cl` [Crizotinib] + CS(=O)(=O)CCNCc1ccc(-c2ccc3ncnc(Nc4ccc(OCc5cccc(F)c5)c(Cl)c4)c3c2)o1 [lapatinib] (first compound 0.2 µM, partner dose 0.8 µM), for which the cell count in the test with MZ2-MEL is 90.6%; in the test on MeWo, 88.3%; with RPMI7951, 85.4%; in the test with RVH-421 it was 85.2%; in the test with SkMel28, 89.6%; in the test on SkMel2, 85.9%. Further, the cell count worked out at 76.9% in the test on SkMel30 and 92.7% with UACC62.

Regarding `CN1CCN(c2ccc3nc(-c4c(N)c5c(F)cccc5[nH]c4=O)[nH]c3c2)CC1` [Dovitinib] + COCC[n+]1c2c(n(Cc3cnccn3)c1C)C(=O)c1ccccc1C2=O [YM155] (first compound 0.1 µM, partner dose 0.0004 µM), the cell count is 75.6% in the test on MZ2-MEL; 80.2% in the test with MeWo; 94.1% in the test with RPMI7951; 103% in the test on RVH-421; 81.5% with SkMel28; 98.5% in the test with SkMel2. The cell count with SkMel30 came out at 68.5%; in the test with UACC62, 83.7%.
